This note sets out measurements from the supplement of paper PMC7826260.

The other results are listed elsewhere or left out. One pool of 16,384 single-stranded DNAs met each Rep nickase domain in vitro at 3 µM enzyme and 37 °C for 1 h; the strands have 90 letters, of which the middle is given. Uncut reads are compared with the no-enzyme pool on a log2 scale; uncut sequences lie near 0, cut ones below; no hit call is given. Counts are relative to all reads; values above 0 arise when much of the pool is cut.

The experiment deals with T1, Rep nickase domain of porcine circovirus 2.
T1 sequence (Rep 2-116, printed without the tag): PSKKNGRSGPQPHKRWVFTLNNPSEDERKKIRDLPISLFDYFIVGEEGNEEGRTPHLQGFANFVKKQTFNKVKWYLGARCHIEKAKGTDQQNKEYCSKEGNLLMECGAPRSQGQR
The experiment is described as follows: uncleaved DNA left, log2 of reads against the no-enzyme library (log2 ratio); higher = less cleavage (more negative = more Rep cleavage of the k-mer); sequences stand for … in CTCGTCCG…ACCGGAGA
As for the experimental part: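 A pool of 90-nt single-stranded DNAs with seven random bases just before the constant AC of the nick site (name = the seven bases) was cut by 3 µM recombinant His6-SUMO-tagged Rep nickase domain (300 nM DNA, 50 mM HEPES pH 8.0, 50 mM NaCl, 1 mM MnCl2, 1 h, 37 °C, three replicates). Uncut DNA was amplified and sequenced.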
Regarding AGGCTCC, the “uncleaved DNA left (log2)” value came to 0.0567.
The figure for TCTTCCG is 0.186.
As for CGAGAAC, the “uncleaved DNA left (log2)” value was -0.156.
The figure for TCGAGGC is 0.0251.
The figure for GTGAAAT is 0.225.
The figure for TTAGCAT is -0.0384; for GTTGCGC it is 0.133.
On to ACCTGAT, for which the “uncleaved DNA left (log2)” value is -1.4.
The figure for CGTTGGG is 0.0206; for TTAATTT it is -0.387.
On to TCCCCCC, for which the “uncleaved DNA left (log2)” value is -0.517.
In the case of AGCATTG, the “uncleaved DNA left (log2)” value came to 0.0808.
The figure for TTTCGAA is -0.0586; for ATATGGG it is 0.247; for AATAGTC it is 0.0529.
Consider CTGGTTG, for which the “uncleaved DNA left (log2)” value is -0.131.
The figure for TCTTCTT is -3.36; for CATCGCA it is 0.0592.
CGTTAAC: the “uncleaved DNA left (log2)” value worked out at 0.02.
The figure for TCTGAAT is 0.00629; for ATAACTC it is 0.0565.
The figure for TCATCCT is -1.32; for GACCCGG it is -0.04.
TGAGGAA: the “uncleaved DNA left (log2)” value turned out to be 0.0822.
In the case of CCCGCGG, the “uncleaved DNA left (log2)” value stood at 0.00937.
As to CGAGGAG, the “uncleaved DNA left (log2)” value is 0.0363.
AGAGAAA: the “uncleaved DNA left (log2)” value is -0.139.
As for GGCCAGG, the “uncleaved DNA left (log2)” value came to 0.206.
On to TTCAAGC, for which the “uncleaved DNA left (log2)” value amounted to 0.0366.
The figure for CAAGACT is -0.191.
The figure for GCTGCGC is 0.123; for ATTGGGG it is 0.302.
The figure for AGAAGTG is 0.212.
As to TCCACTT, the “uncleaved DNA left (log2)” value is -0.245.
The figure for AGACCCC is 0.15; for ATAGAGA it is 0.268; for ACTGATG it is 0.0574.
The figure for AACGTTT is -1.03; for GGGTCTC it is 0.119; for CTTCGTG it is 0.0818.
